In all, about 48,000 compounds went through this assay and about 450 (0.94%) were called active. The shares of active, inactive and inconclusive entries below differ from those in the screen. The call rests on the fitted dose curve; in most records, active means well fitted inhibition curve with a large enough effect; inconclusive means small, poorly fitted or top-dose-only effect; inactive means no such curve, though single readings can be large or run the other way. Potencies beside an inconclusive call are fits to weak or partial responses and may not hold up.
Assay: Primary qHTS for Identification of Small Molecule Inhibitors of Huntingtin Promoter Activity; further: nearly all actives have a fitted effect of over 50% in size
Conditions: HEK293 HTT promoter firefly luciferase reporter (activity 0% = vehicle and -100% = no light), 24 h; activity change, negative = inhibition: at 57.5 µM (top of the series)
Procedure, shortened: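 Quantitative HTS used concentration series of up to 57.5 uM final on HEK293 luciferase reporter cells, 24 h at 37 degrees C. Readout was Dual-Glo firefly luminescence.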
Potency means the concentration at half of the fitted maximal effect; tags describe the fitted curve by direction and shape.

Activity change, negative = inhibition, inactive:
COc1ccc(-n2c(=O)c3ccc(C(=O)NCc4ccc(C)cc4)cc3n(CC(=O)Nc3ccc(F)cc3)c2=O)cc1 -9.47%
NCc1c[nH]c(=S)n1[C@H]1CCc2c(F)cc(F)cc2C1 -9.43%
Cc1ccc(C)c(N2CCN(CCCNC(=O)Nc3cc(Cl)ccc3C)CC2)c1 -13.8%
O=C(Nc1cccc(Cl)c1Cl)c1ccc2c(c1)N(Cc1cccc(Cl)c1)C(=O)c1ccccc1S2(=O)=O -11%
COc1ccc(CC2SC(=O)NC2=O)cc1C(=O)NCc1ccc(C(F)(F)F)cc1 (stereo not drawn) -18%
Cc1nc2ccccc2c(=O)n1-c1ccc(NC(=O)C(F)(F)F)cc1 -19.2%
CCOc1ccccc1NC(=O)c1c(NCc2sccc2C)sc2c1CCCCC2 -11.9%
COc1ccc(C2CC(=O)c3cc(-c4nc(-c5ccc(Cl)cc5)cs4)c(=O)[nH]c3C2)cc1OC (stereo not drawn) -17.7%
CCn1cc(C(=O)N2CCN(c3cccc(C)c3C)CC2)c2cc(OC)c(OC)cc2c1=O -15.5%
CCCCCCCC(=O)[O-].CCCCCCCC(=O)[O-].[Zn+2] 5.94%
COc1ccc(Nc2c3c(nc4ccc(NC(=O)c5ccc(F)cc5)cc24)CCCC3)cc1OC -22.6%
COc1ccc(C(=O)Nc2nnc(SCc3cc(=O)n4cccc(C)c4n3)s2)cc1 16.8%

Potency, inconclusive:
O=C(Nc1cccc(C(=O)N2CCN(c3ccc(Cl)cc3)CC2)c1)c1nsc2ccccc12 25.1 µM [inhibitor, single point]
CCc1ccc(NC(=O)CSc2nc3n[nH]c(C)c3c(=N)n2-c2ccccc2C)cc1 14.1 µM [inhibitor, partial curve, poor fit]
Cc1oc(-c2ccc(Cl)cc2)nc1CS(=O)CC(=O)NCc1ccc(Cl)cc1 (stereo not drawn) 39.8 µM [inhibitor, single point]
CCCCOc1ccc(CNC(=O)C2CCN(c3nnc(-n4cccc4CNc4ccc(C)cc4)s3)CC2)cc1 10 µM [inhibitor, partial curve, poor fit]
COc1cc(Cn2c(=O)sc3ccccc32)ccc1OC(C)C 14.1 µM [inhibitor, partial curve]
CC(NC(=O)c1cc(Sc2ccc(F)cc2F)nc2ccccc12)c1ccccc1 (stereo not drawn) 25.1 µM [inhibitor, single point]
Cc1ccc(N2CCN(C(=O)Cc3c(C(=O)O)c(C)cn3C)CC2)c(C)c1 39.8 µM [inhibitor, single point]
Cc1cccc(NC(=O)N2CCc3c(sc4c3CCCC4)C2c2ccc(F)cc2)c1 (stereo not drawn) 28.2 µM [inhibitor, partial curve, poor fit]
OCc1ccc(-c2nn(Cc3ccccc3)c3ccccc23)o1 4.32 µM [inhibitor, full curve]
CCc1ccc(NC(=O)C2CCN(C(=O)N3CC(CC)Oc4ccccc43)CC2)cc1 (stereo not drawn) 25.1 µM [inhibitor, single point]
CCOC(=O)c1cccc(NC(=O)C(CC(C)C)N2Cc3ccccc3C2=O)c1 (stereo not drawn) 39.8 µM [inhibitor, single point]
O=S(=O)(Nc1ccc(Cl)cc1)c1ccc(NS(=O)(=O)c2ccc3c(c2)OCCO3)cc1 14.1 µM [inhibitor, single point]
COc1ccc(OC)c(CNC(=O)CCCn2ccc3cc(S(=O)(=O)N4CCCC4)ccc32)c1 28.2 µM [inhibitor, partial curve, poor fit]
N#C/C(=C/c1cn(Cc2ccc(F)cc2)c2ccccc12)C(=O)Nc1cccc(Cl)c1 17.8 µM [inhibitor, partial curve, poor fit]
CCc1ccc(CNC(=O)c2cccc(-n3cnc4cccnc43)c2C)cc1 31.6 µM [inhibitor, single point]
COc1cc(C(=O)Oc2c(Sc3ccc(C)cc3)c(C)nn2-c2ccccc2)cc(OC)c1OC 35.5 µM [inhibitor, partial curve]
O=C(NCCc1ccc(Cl)cc1)c1ccc(CS(=O)Cc2cccc(Cl)c2)o1 (stereo not drawn) 28.2 µM [inhibitor, single point]
COc1ccc(CC(=O)NCCc2csc(-c3ccc(Cl)cc3)n2)cc1 25.1 µM [inhibitor, partial curve]
COc1ccccc1CCNC(=O)C(=O)NCC(c1ccco1)S(=O)(=O)c1ccc(C)cc1 (stereo not drawn) 14.1 µM [inhibitor, partial curve]
Cc1ccc(-c2nc(CS(=O)CC(=O)N3CCN(c4ccc(Cl)cc4)CC3)c(C)o2)cc1 (stereo not drawn) 25.1 µM [inhibitor, partial curve, poor fit]
CNC(=O)c1ccc(N2C(=S)N(c3cnc(C#N)c(C(F)(F)F)c3)C(=O)C23CCC3)cc1F 3.06 µM [inhibitor, full curve]
Cc1ccc(-n2ncc(C(=O)NCCc3ccsc3)c2C2CCN(C(=O)OC(C)(C)C)CC2)cc1C 39.8 µM [inhibitor, single point]
CCCNC(=O)c1ccc(-n2c(-c3ccccc3)cc3c2CCC(C)C3)cc1 (stereo not drawn) 35.5 µM [inhibitor, single point]
CNC(=O)c1ccccc1Sc1ccc2c(/C=C/c3ccccn3)n[nH]c2c1 15.8 µM [inhibitor, partial curve]
O=C(NCCCN1CCN(c2ccccc2)CC1)c1ccc2nc(Cc3ccccc3)oc2c1 25.1 µM [inhibitor, partial curve]
Cc1noc(C)c1S(=O)(=O)N1CCC(C(=O)N2CCN(c3cccc(C(F)(F)F)c3)CC2)CC1 14.1 µM [inhibitor, partial curve]
CCC1CCCCN1C(=O)CSc1nc2c([nH]c3ccccc32)c(=O)n1-c1ccc(OC)cc1 (stereo not drawn) 39.8 µM [inhibitor, single point]
COC(=O)c1nnn(CC(=O)NC(=O)Nc2c(C)cccc2C)c1C(=O)OC 28.2 µM [inhibitor, single point]
Cc1ccccc1C(=O)n1nc(-c2cccnc2)nc1NCc1ccccc1 31.6 µM [inhibitor, single point]
CCn1cc2nc(SCC(=O)Nc3ccccc3C(F)(F)F)n(Cc3ccc(C)cc3)c(=O)c2n1 28.2 µM [inhibitor, partial curve, poor fit]
CCCS(=O)(=O)NCCc1sc2nc(-c3ccc(F)cc3)nn2c1C 28.2 µM [inhibitor, partial curve, poor fit]
COc1ccc(Cn2c(C(=O)O)c(CNCCc3cc(OC)ccc3OC)c3ccc(C)cc32)cc1 39.8 µM [inhibitor, single point]
CC[C@@]1([C@@H]2O[C@@H]([C@H]3O[C@@](O)(CO)[C@H](C)C[C@H]3C)C[C@H]2C)CC[C@H]([C@]2(C)CC[C@]3(C[C@H](O)[C@@H](C)[C@@H]([C@@H](C)[C@@H](OC)[C@H](C)C(=O)O)O3)O2)O1 0.421 µM [inhibitor, full curve, poor fit]
COc1ccc(C2c3c(n(C)c4ccccc34)C(=O)N2CC(=O)Nc2cccc(F)c2)cc1 (stereo not drawn) 14.1 µM [inhibitor, partial curve, poor fit]
COc1ccc(NC(=O)c2oc3ccc(S(=O)(=O)N4CCOCC4)cc3c2C)cc1 31.6 µM [inhibitor, partial curve]
Cc1ccc(Cl)cc1N1CCN(CCCNC(=O)c2ccc3nc(N4CCCCC4)sc3c2)CC1 1 µM [inhibitor, full curve, poor fit]
C[C@@H](Oc1ccc2[nH]nc(C=Cc3cnn(CCO)c3)c2c1)c1c(Cl)cncc1Cl 8.63 µM [inhibitor, partial curve]
CCn1ccc2c(OCC(=O)Nc3ccccc3C(F)(F)F)cccc2c1=O 10 µM [inhibitor, partial curve]
CCOc1ccc(CCNC(=O)c2cnc3sc(N4CCCC4)nn3c2=O)cc1 15.8 µM [inhibitor, single point]
COc1ccc(Cn2ccc3nc(C)c(C(=O)N4CCN(c5ccc(OC)cc5)CC4)cc3c2=O)cc1 22.4 µM [inhibitor, partial curve, poor fit]
COc1ccc(C(=O)NCc2ccc3c(c2)CCN3C(=O)c2ccc(C)cc2)cc1 31.6 µM [inhibitor, single point]
CCOc1ccc(N(CC)C(=O)c2nn(-c3ccc(OC)cc3)c(=O)c3c2c2ccccc2n3C)cc1 1.78 µM [inhibitor, full curve, poor fit]
Cc1cccc(CNC(=O)c2ccc3oc(=O)n(Cc4ccccc4)c3c2)c1 28.2 µM [inhibitor, single point]
COc1ccc(Cl)cc1NC(=O)C1CCN(S(=O)(=O)c2ccc3c(c2)CC(C)N3C(C)=O)CC1 (stereo not drawn) 39.8 µM [inhibitor, single point]
Cc1cc(C)cc(NC(=O)CSc2oc(-c3ccco3)nc2S(=O)(=O)c2ccc(Cl)cc2)c1 25.1 µM [inhibitor, partial curve, poor fit]
CCN(CC)S(=O)(=O)c1cccc(C(=O)Nc2sc3c(c2C#N)CCC(C)C3)c1 (stereo not drawn) 25.1 µM [inhibitor, single point]

— PubChem BioAssay AID1508623 (National Center for Advancing Translational Sciences (NCATS), 2021)
